Assay results as given in ChEMBL document CHEMBL4888484, “Replenishing the malaria drug discovery pipeline: Screening and hit evaluation of the MMV Hit Generation Library 1 (HGL1) against asexual blood stage Plasmodium falciparum ,using a nano luciferase reporter read-out” (2022).
The campaign covered roughly 150,000 compounds. About 540 (0.36%) showed an effect of 50% or more. The list shows a part of the results.

These compounds were tested on Plasmodium falciparum (assay: Primary screen in NF54 nanoGlo assay, in single point, at 2uM, 72h; a lower Z score goes with more inhibition). Conditions: timepoint 72 hour.
Format: functional, Erythrocyte

Row | SMILES | % Inhibition [%] | Z score
1 | Cc1noc(C)c1CN(C)C(=O)Nc1cc(C(F)(F)F)c[nH]c1=O | 3 | -0.45
2 | Cc1nc(CN[C@@H](CCO)C(C)(C)C)sc1C | -1 | 0.15
3 | CCOC(=O)c1cc(CNC(=O)C(C)(C)C)ccc1Cl | 0 | -0.02
4 | CCCC(=O)OC[C@@H](O)CN(Cc1ccccc1C)CC(C)C | -7 | 0.88
5 | CN(C)S(=O)(=O)c1cccc(-c2nnc(C3(C)CCOCC3)o2)c1 | -16 | 2.54
6 | Cc1cccc(NC(=O)NCC2CCC3(CC2)OCCO3)c1F | -7 | 0.72
7 | Cc1ccc(O[C@H]2CCOC[C@H]2NC(=O)c2sccc2N)cn1 | 0 | 0.06
8 | CC(C)C(=O)N(CCCN1CCCC1)[C@H]1CCCN(C(=O)CC2CCCCC2)C1 | -3 | 0.53
9 | O=C(CCC1CCN(C[C@H]2CCOC2)CC1)Nc1ccccc1Cl | -3 | 0.41
10 | Cc1ccc(S(=O)(=O)N2Cc3ccccc3C[C@H](C(=O)O)C2)cc1 | -7 | 0.85
11 | CCOc1ccc(CCNC(=O)C2CCN(S(=O)(=O)c3c(C)nn(C)c3C)CC2)cc1OCC | -1 | 0.15
12 | Cc1nnc(-c2ccccc2-c2cccc3ccnn23)o1 | -10 | 1.88
13 | Cc1c(NC(=O)c2ccc3[nH]c4c(c3c2)CCCC4)c(=O)n(-c2ccccc2)n1C | -3 | 0.5
14 | C[C@H](Nc1ccc(C#N)cn1)C(=O)Nc1ccccc1 | -4 | 0.49
15 | CCN1C[C@H](NC(=O)c2ccc(-c3cc(C)ccc3Cl)cc2)[C@@H](OC)C1 | -15 | 1.63
16 | CCOc1ccc(C(=O)N2CCCN(c3ccc(=O)n(-c4ccc(C)cc4)n3)CC2)cc1OCC | 15 | -1.73
17 | C[C@@H](c1ccon1)N(C)Cc1c[nH]nc1-c1ccc(-c2ccccc2)cc1 | 1 | -0.11
18 | CCCS(=O)(=O)NC[C@H](OC)c1ccccc1C | 17 | -2.12
19 | Cc1ccc2ncnc(N(C)C3CCCCC3)c2c1 | -1 | 0.19
20 | COc1cc(Br)c(CN(C)CCc2cnccn2)c(OC)c1 | 0 | 0.05
21 | CC(C)C[C@H](NC(=O)Nc1cccc(-c2nnn(C)n2)c1)c1cccnc1 | 1 | -0.1

Row | SMILES | % Inhibition [%] | Z score
22 | O=C1CCN(Cc2ccon2)c2ccc(F)cc2N1 | -10 | 1.63
23 | O=C(CN1C(=O)CCC1=O)N1CCC(Oc2cnc3ccccc3n2)CC1 | -14 | 2.66
24 | Cc1cccc(N2CCN(C(=O)c3ccc(OCc4cn5cccc(C)c5n4)cc3)CC2)c1 | -13 | 2.65
25 | Cc1nc(C)c(Cc2ccc(Cl)cc2)c(N2CCN(C(=O)Nc3ccc(C(C)C)cc3)CC2)n1 | -2 | 0.34
26 | O=C(OCc1cn(-c2ccccc2)nc1-c1ccc(Cl)cc1)c1cc(Cl)ccc1Cl | -7 | 1.15
27 | COc1cccc(CN2Cc3ncccc3C2=O)c1OC | -9 | 1.6
28 | Nc1c(Cl)ccc(C(=O)N2CC[S+]([O-])CC2)c1Cl | 7 | -1
29 | Cc1ccc(C)c(NS(=O)(=O)c2cc3c(cc2C)N(Cc2noc(C4CC4)n2)C(=O)CO3)c1 | 5 | -0.63
30 | Cc1ccc(C(=O)N(Cc2ccco2)C2CC2)cn1 | -3 | 0.26
31 | Cc1n[nH]c(NS(=O)(=O)c2cccnc2)c1C#N | -1 | 0.12
32 | CNS(=O)(=O)c1ccc(-c2ccc(N)cn2)cc1 | -17 | 2.14
33 | Cc1cc(-c2ccc(C(=O)NC[C@H]3CCOC3)cc2)c2ccccc2n1 | -5 | 0.8
34 | COCCN(C)S(=O)(=O)Nc1c(O)cccc1C(=O)OC | -5 | 0.6
35 | CC[C@H]1CCCN1C(=O)Nc1cccc(C(=O)N(C)C)n1 | -8 | 1.3
36 | O=C(COc1ccc(Cl)cc1Cl)N1CCC2(CCO2)CC1 | -1 | 0.12
37 | COc1ccc([C@@H]2CC(c3cccn3C)=NN2C(=O)CN(CCN2CCOCC2)C(=O)C2CCCC2)cc1 | -14 | 1.44
38 | COc1ccccc1OCC(=O)NC1(c2cccs2)CCOCC1 | 4 | -0.49
39 | CCCn1cc(CN2C[C@H](C)OCC2(C)C)cn1 | -2 | 0.27
40 | COc1cccc(C(=O)N2CCC[C@H](Oc3nccnc3C#N)C2)c1OC | -7 | 1.21
41 | Cc1csc(C(C)(C)NCC(=O)N2CCC[C@H]2c2cccs2)n1 | -12 | 1.16
42 | CC[C@H](C)NC(=O)Nc1cccc(C(N)=O)c1C | -7 | 0.65
